Measured values reported in publication PMC4336329 (PLoS ONE, 2015).
The whole screen tested about 310,000 compounds, of which about 2,200 (0.71%) showed an effect of 50% or more. The effect is printed as a negative number. This is one part of the list.

Target: human ether-à-go-go-related gene (hERG) potassium channel (human, UniProt Q12809)
Assay: primary screen, population patch clamp on CHO cells stably expressing hERG

Sequence of human ether-à-go-go-related gene (hERG) potassium channel (Q12809 whole entry, looked up): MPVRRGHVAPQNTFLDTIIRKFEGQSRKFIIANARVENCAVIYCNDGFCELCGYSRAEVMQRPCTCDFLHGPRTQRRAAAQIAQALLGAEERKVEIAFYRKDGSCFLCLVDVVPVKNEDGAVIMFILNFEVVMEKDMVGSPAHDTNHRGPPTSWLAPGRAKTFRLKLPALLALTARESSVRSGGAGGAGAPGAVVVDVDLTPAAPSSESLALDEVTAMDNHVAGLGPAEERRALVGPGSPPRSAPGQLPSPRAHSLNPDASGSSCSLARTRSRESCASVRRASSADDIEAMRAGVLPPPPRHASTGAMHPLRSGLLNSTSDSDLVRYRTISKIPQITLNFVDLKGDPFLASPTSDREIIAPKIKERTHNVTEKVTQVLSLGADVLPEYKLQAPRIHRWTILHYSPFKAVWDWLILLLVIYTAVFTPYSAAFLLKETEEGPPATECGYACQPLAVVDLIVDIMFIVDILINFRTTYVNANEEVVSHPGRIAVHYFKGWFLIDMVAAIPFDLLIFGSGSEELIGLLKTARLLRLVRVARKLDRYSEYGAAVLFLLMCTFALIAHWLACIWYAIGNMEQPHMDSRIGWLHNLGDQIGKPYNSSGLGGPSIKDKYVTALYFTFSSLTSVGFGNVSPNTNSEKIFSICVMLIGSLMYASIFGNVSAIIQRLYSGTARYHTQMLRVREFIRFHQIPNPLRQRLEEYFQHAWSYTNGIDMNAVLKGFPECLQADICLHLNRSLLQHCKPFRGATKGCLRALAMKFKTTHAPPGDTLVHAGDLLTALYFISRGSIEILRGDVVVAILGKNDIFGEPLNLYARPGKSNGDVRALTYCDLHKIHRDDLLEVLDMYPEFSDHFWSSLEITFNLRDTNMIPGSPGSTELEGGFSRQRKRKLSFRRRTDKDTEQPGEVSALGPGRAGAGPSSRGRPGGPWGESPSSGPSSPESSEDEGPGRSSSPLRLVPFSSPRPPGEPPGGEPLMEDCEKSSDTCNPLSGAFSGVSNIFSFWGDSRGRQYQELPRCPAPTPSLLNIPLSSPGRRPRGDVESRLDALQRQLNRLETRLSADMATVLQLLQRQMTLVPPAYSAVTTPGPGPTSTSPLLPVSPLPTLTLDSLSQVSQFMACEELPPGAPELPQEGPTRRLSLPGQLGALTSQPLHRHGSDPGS

SMILES | hERG current change (%, negative = inhibition) at 1uM [%]
CCN(CC)c1ccc(N=Cc2c(O)n(-c3ccc(OC)cc3)c(=O)[nH]c2=O)cc1 | 11.4
CC(=O)N1c2ccc(S(=O)(=O)N3CCCCC3)cc2CC1C(=O)NCc1ccccc1C (centres unmarked) | 10.7
COc1ccc(NCc2nc3ccccc3n2CCOc2ccc(C)cc2)cc1 | 2.52
Cc1csc(Nc2nc(N)c(C(=O)Nc3cc(Cl)ccc3F)o2)n1 | 6.02
CCn1nc(C)c(C(=O)Nc2cc(Oc3ccc(Cl)cc3)cc([N+](=O)[O-])c2)c1C | -0.037
CC(C)(C)NC(=O)CN1CCC(O)(c2ccccc2)CC1 | 14.2
C=CCN=c1sc(C(=O)OC)cc(=O)n1CC=C | 15.4
COC(=O)c1ccccc1NC(=O)CSc1nc2c(c(=O)[nH]1)CCC2 | 0.75
CCOc1ccc(CC(=O)NCCc2cnc[nH]2)cc1 | 3.84
CSc1nnc2c(n1)OC(C)N(C(=O)c1ccccc1)c1ccccc1-2 (centres unmarked) | 10.8
CCOc1ccc(S(=O)(=O)N2CCC(C(=O)NCc3ccccn3)CC2)cc1C | 10.4
COc1ccc(NS(=O)(=O)c2ccc3c(c2)N(C(C)=O)CCO3)cc1 | 19.5
C=CCn1c2ccccc2c(=O)c2cc(C#CC3(O)CCCCC3)ccc21 | 16
CC(Sc1nnc(CNC(=O)c2ccco2)n1C)C(=O)Nc1nccs1 (centres unmarked) | 12.5
COc1ccc(-n2nnnc2SCC(=O)c2ccc3c(c2)OCCO3)c(OC)c1 | -1.11
COc1cc2c(cc1OC)CC(=O)N(C)CC2 | 6.78
COc1cc(/C=C2\NC(=O)NC2=O)cc(Br)c1OC | 12.7
CN(Cc1ccccc1)C(=O)c1[nH]cnc1C(=O)Nc1ccon1 | 13.4
CC(C)CC(=O)N1CCN(S(C)(=O)=O)CC1 | 11.4
O=C(CCC1CCCC1)N1CCN(C(=O)c2ccco2)CC1 | -1.72
CC(C)CCCC(C)CCOC(=O)CN1CCCC1 (centres unmarked) | 10.3
Cc1ccc(NC(=O)C2CCN(C(=O)c3ccc(F)cc3)CC2)nc1 | 5.43

SMILES | hERG current change (%, negative = inhibition) at 1uM [%]
COc1cccc(Nc2nc(NCCO)nc(N3CCCC3)n2)c1 | 3.49
COc1cc(NS(=O)(=O)c2ccc3[nH]c(=O)oc3c2)cc(OC)c1 | 11.6
CN(C)c1ccc(C(=O)OCC(=O)c2cccs2)cc1 | 9.31
Cn1c(SCC(=O)NC2CCCC2)nc2c(c1=O)SCC2 | 14.1
COCCCN(C(=O)C1CCC1)c1c(N)n(Cc2ccccc2)c(=O)[nH]c1=O | 2.31
O=C(NC1CCCCCC1)c1cc2c(=O)n3ccccc3nc2s1 | 8.59
Cc1cccc(NC(=O)CN(C)CC(=O)NC(c2ccccc2)c2ccccc2)c1C | 3.3
CCC1=NN(C(=O)c2cccc([N+](=O)[O-])c2)C(O)(c2ccc(C)cc2)C1 (centres unmarked) | 19
CCOC(=O)N1CCC(Nc2c(Nc3ccc(F)cc3)c(=O)c2=O)CC1 | 16.9
COC(=O)COc1ccc(-c2ccccc2)cc1C=O | 8.6
O=C(NCCN1CCOCC1)c1ccc2c(c1)N(Cc1c(F)cccc1Cl)C(=O)c1ccccc1S2 | 11.5
O=C(Nc1ccc2oc(-c3ccncc3)nc2c1)c1ccco1 | 15.4
O=C1NC(=Nc2ccccc2)S/C1=C\c1cccn1-c1ccccc1 | 12.8
CC(=O)c1cccc(NC(=O)N2CCOCC2)c1 | 15.1
CC1(c2nnc(-c3cccc(Cl)c3)o2)CC(c2cccc(Cl)c2)=NO1 (centres unmarked) | 11.6
CCCNc1c(NC(=O)COc2ccc(Cl)cc2)c(=O)oc2ccccc12 | 0.348
COc1ccc(/C(O)=C2/C(=O)C(=O)N(c3ccccn3)C2c2cccc(Cl)c2)cc1 (centres unmarked) | 12.4
O=C1CCC2(C(=O)O)Sc3ccccc3N12 (centres unmarked) | 6.7
COc1cc(CCN)ccc1O.Cl | 14.2
CCOC(=O)c1c(NCC2CCCO2)c2ccccc2[nH]c1=O (centres unmarked) | 2.15
C1CCC(n2nnnc2CN2CCCC2)CC1 | -0.0339
O=C(N/N=C/c1cccc([N+](=O)[O-])c1)c1ccccc1-n1cccc1 | 7.19
